Test results from PubChem BioAssay AID504339 (National Center for Advancing Translational Sciences (NCATS), 2011).
Among all 390,000 compounds or so, about 17,000 (4.4%) were called active. The shares of active, inactive and inconclusive entries below differ from those in the screen. Calls follow the shape of the dose curve; as a rule, active = well fitted inhibition curve with a large enough effect; inconclusive = small, poorly fitted or top-dose-only effect; inactive = no such curve, though single readings can be large or run the other way. Where the call is inconclusive, the potency comes from a doubtful curve fit.
Also: nearly all actives have a fitted effect of over 50% in size.
Potency is read from the fitted curve at half-maximal effect; tags tell the direction and shape of the fitted curve.

What follows are molecules tested against Lysine-specific demethylase 4A (Homo sapiens) (UniProt O75164) (assay: qHTS Assay for Inhibitors of JMJD2A-Tudor Domain). Conditions: AlphaScreen JMJD2A-Tudor / H3K4me3 peptide binding; series mostly up to 114 µM.
Sequence of UniProt O75164 (O75164 whole entry, looked up, the tested form may be a part): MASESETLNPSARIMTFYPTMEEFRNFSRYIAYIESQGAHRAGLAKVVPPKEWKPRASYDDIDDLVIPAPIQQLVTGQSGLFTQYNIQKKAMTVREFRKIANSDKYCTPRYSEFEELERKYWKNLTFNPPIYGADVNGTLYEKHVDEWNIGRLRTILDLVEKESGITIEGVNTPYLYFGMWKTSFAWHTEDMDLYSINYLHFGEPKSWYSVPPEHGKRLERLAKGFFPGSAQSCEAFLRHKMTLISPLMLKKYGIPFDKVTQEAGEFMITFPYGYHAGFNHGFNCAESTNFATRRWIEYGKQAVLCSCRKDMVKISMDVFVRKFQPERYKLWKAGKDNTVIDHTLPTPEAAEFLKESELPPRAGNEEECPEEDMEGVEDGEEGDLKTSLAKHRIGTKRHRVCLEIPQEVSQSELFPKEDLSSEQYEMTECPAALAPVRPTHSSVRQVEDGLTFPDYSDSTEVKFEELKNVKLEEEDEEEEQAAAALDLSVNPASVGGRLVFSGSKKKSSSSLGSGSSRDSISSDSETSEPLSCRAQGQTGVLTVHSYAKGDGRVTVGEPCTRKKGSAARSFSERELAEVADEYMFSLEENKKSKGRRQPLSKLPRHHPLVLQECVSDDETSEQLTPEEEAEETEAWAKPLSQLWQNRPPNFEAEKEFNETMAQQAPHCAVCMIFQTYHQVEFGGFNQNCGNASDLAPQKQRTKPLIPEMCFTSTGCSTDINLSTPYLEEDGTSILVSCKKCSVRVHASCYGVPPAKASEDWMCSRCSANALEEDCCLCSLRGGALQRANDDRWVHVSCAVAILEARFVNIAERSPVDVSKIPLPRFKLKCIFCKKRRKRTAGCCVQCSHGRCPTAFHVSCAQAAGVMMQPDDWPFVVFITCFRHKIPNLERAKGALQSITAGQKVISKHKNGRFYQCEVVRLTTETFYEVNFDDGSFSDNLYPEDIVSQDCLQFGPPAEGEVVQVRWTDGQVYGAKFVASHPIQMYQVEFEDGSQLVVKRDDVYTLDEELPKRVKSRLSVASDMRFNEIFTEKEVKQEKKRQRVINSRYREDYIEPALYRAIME
With `C=CCNc1nnc(SC2CC(=O)N(c3ccc(OCCC)cc3)C2=O)s1` (stereo not given) the Potency was active: 35.5 µM.
In the case of `Oc1ccccc1C1=Nc2nc3ccccc3n2C(c2ccccc2)C1` (stereo not given), the Potency is reported as inconclusive: 50.1 µM [inhibitor, partial curve].
For `Cc1occc1-c1nnc(SCC(=O)N2CCCc3ccccc32)n1Cc1ccco1`, the Potency was “inactive”.
`O=C(Nc1ccc2c(c1)OCO2)c1cc2ncc(Br)cn2n1` was tested, and the Potency was inconclusive: 7.08 µM [inhibitor, single point].
With `Cc1ccc(-c2nc(SCC(=O)N(C)C3CCS(=O)(=O)C3)[nH]c2-c2ccc(C)cc2)cc1` (stereo not given) the Potency was inconclusive: 50.1 µM [inhibitor, partial curve].
For `COc1cccc(-c2nc(SCC(=O)Nc3ccc4c(c3)OCCO4)c(-c3ccccc3)[nH]2)c1`, the Potency was inconclusive: 31.6 µM [inhibitor, partial curve].
With `CCOCCCNC(=O)c1[nH]c2cc(C)ccc2c1Sc1ccc(Cl)cc1` the Potency was inconclusive: 28.2 µM [inhibitor, full curve].
In the case of `CCn1c(SCC(=O)Nc2ccccc2Br)nnc1-c1cnccn1`, the Potency is reported as inconclusive: 14.1 µM [inhibitor, full curve, poor fit].
For `O=c1c2c3c(sc2n(CCN2CCCCC2)c(=O)n1Cc1ccco1)CCCCC3`, the Potency was inconclusive: 44.7 µM [inhibitor, partial curve].
In the case of `O=C(Nc1nn[nH]n1)c1ccc(S(=O)(=O)N2CCCCC2)cc1`, the Potency is reported as inconclusive: 89.1 µM [inhibitor, single point].
For `CCOC(=O)/C(C#N)=C/c1c(N2CCN(Cc3ccc4c(c3)OCO4)CC2)nc2c(C)cccn2c1=O`, the Potency was inconclusive: 15.8 µM [inhibitor, full curve].
For `Cc1[nH]c2ccc(C(=O)OC(C)C(=O)N(C)c3ccccc3)cc2c1C` (stereo not given), the Potency was inconclusive: 56.2 µM [inhibitor, partial curve].
For `CC(C)(O)c1[nH]c2cc(C(F)(F)F)ccc2c1C(C)(C)O`, the Potency was “inactive”.
For `Cc1cc(-c2csc(NC(=O)C3=COCCO3)n2)c(C)n1C`, the Potency was “inactive”.
For `CC(=O)Nc1ccc(S(=O)(=O)NNC(=O)COc2cccc(C)c2)cc1`, the Potency was active: 50.1 µM.
`O=C(Nc1cc(S(=O)(=O)N2CCOCC2)ccc1OCC(F)(F)F)C1=COCCO1` was tested, and the Potency was “inactive”.
For `O=C(NCc1ccco1)c1ccccc1NS(=O)(=O)c1ccc(Cl)s1`, the Potency was inconclusive: 89.1 µM [inhibitor, single point].
In the case of `Cc1ccccc1Nc1c(-c2ccco2)nc2c(C)cccn12`, the Potency is reported as inconclusive: 50.1 µM [inhibitor, partial curve].
In the case of `Cc1ccccc1/C=C/c1cc[n+](C)cc1`, the Potency is reported as inconclusive: 39.8 µM [inhibitor, single point].
With `CN(C(=O)CN1C(=O)/C(=C/c2ccccc2Cl)SC1=S)C1CCS(=O)(=O)C1` (stereo not given) the Potency was inconclusive: 56.2 µM [inhibitor, partial curve].
`COc1ccc(C2=C/C(=C\c3cccc(OC(C)=O)c3)C(=O)O2)cc1` was tested, and the Potency was “inactive”.
In the case of `COc1ccc(N2CCN(C(=O)c3cc(-c4cc(OC)ccc4OC)nc4ccccc34)CC2)cc1`, the Potency is reported as active: 35.5 µM.
For `CCCNC(=O)COc1coc(CN2CCN(c3cccc(Cl)c3)CC2)cc1=O`, the Potency was “inactive”.
`O=C(NC(=S)Nc1ccc2[nH]ncc2c1)c1ccccc1` was tested, and the Potency was inconclusive: 70.8 µM [inhibitor, single point].
For `CC(C)C(OC(=O)C1=Cc2ccccc2OC1)C(=O)NCC1CCCO1` (stereo not given), the Potency was active: 50.1 µM.
In the case of `O=S(=O)(c1cccs1)N1CN(Cc2ccc(F)cc2)c2nc3ccccc3nc21`, the Potency is reported as inconclusive: 89.1 µM [inhibitor, single point].
With `Cc1cc(NC(=O)CSc2nnc(-c3ccco3)n2N)no1` the Potency was “inactive”.
With `CCCCCc1ccc(OCCOCCn2c[n+](C)c3ccccc32)c(CCCCC)c1` the Potency was inconclusive: 70.8 µM [inhibitor, partial curve].
`COc1ccccc1NCC(O)COc1ccc(C(C)(C)C)cc1` (stereo not given) was tested, and the Potency was active: 2.82 µM.
With `CCOC(=O)C1CCCN(CC(=O)/C=C2/N(C)c3ccccc3C2(C)C)C1` (stereo not given) the Potency was inconclusive: 89.1 µM [inhibitor, single point].
For `O=C1N=C(N2CCCC2C(=O)O)S/C1=C\c1ccco1` (stereo not given), the Potency was inconclusive: 3.16 µM [inhibitor, single point].
In the case of `O=C(NCCc1c[nH]c2ccccc12)C(=O)NCC(c1cccnc1)N1CCN(c2ccccc2)CC1` (stereo not given), the Potency is reported as inconclusive: 20 µM [inhibitor, full curve].
In the case of `O=C(O)c1c[nH]c2c([N+](=O)[O-])cccc2c1=O`, the Potency is reported as active: 20 µM.
For `COc1ccc(CN2CCN(Cc3ccco3)CC2)cc1`, the Potency was active: 3.98 µM.
With `O=c1[nH][nH]c2cc(=O)n(-c3ccc(Cl)cc3)nc12` the Potency was inconclusive: 89.1 µM [inhibitor, partial curve].
With `COc1cccc(CN(C)Cc2nc3cc(C(F)(F)F)ccc3c(=O)[nH]2)c1` the Potency was inconclusive: 1.41 µM [inhibitor, full curve, poor fit].
`Cc1nn(-c2ccccc2)c2c1C(c1cccnc1)N1C=C(S(=O)(=O)N3CCCCC3)C=CC1=N2` (stereo not given) was tested, and the Potency was inconclusive: 56.2 µM [inhibitor, partial curve].
With `CN(Cc1c(C(=O)N2CCc3ccccc3C2)nc2ccc(Cl)cn12)C(C1CC1)C1CC1` the Potency was “inactive”.
In the case of `O=C(CSc1nnc(Cc2ccccc2)o1)NCc1ccco1`, the Potency is reported as inconclusive: 89.1 µM [inhibitor, partial curve].
`Cc1ccc(C(=O)Oc2ccc(/C=C3\C(=N)N4N=C(N5CCOCC5)SC4=NC3=O)cc2)cc1` was tested, and the Potency was inconclusive: 44.7 µM [inhibitor, partial curve].
`N#CC(C#N)=C1C=CC=CN1/C(=C\c1ccccc1Cl)C(=O)c1ccccc1` was tested, and the Potency was active: 50.1 µM.
`COc1cc(/C=N/N(C)c2ccccc2)ccc1O` was tested, and the Potency was active: 56.2 µM.
For `Cc1ccc(NC(=S)N(Cc2ccc(Cl)cc2)Cc2ccc(C(=O)O)cc2)cc1Cl`, the Potency was “inactive”.
For `Cc1ccc(NS(=O)(=O)c2ccc(OCC(=O)NCC3CCCO3)cc2)cc1` (stereo not given), the Potency was active: 50.1 µM.
With `CCOc1ccc(CCNC(=O)c2cnc3c(-c4ccc(F)cc4)c(C)nn3c2C)cc1OCC` the Potency was inconclusive: 89.1 µM [inhibitor, single point].
